# The full ranking holds about 4,500 sequences; the median of “median log2 fold change of GCK-ALFA target abundance (FLAG IP / Myc IP barcode read proportion)” is about 0.078, and the lowest 2% start at about -0.6. This is one part of the list.
# B1: GBRAP_39_5698 (protein)
# chain: EREEEAEEVFSYYEAVGAKYAVEKGISLEEVKALAEERAEEFIAKHPEIAETMEELLELAKEAGDLAVLALLGLLLKAEEGTPLEQIKKDAELLIEYLKS
# B2: GBRAP_11_2832 (protein)
# chain: EKEKLKKLAEMAKEVADKLKKLIASGNPSEEELQELLEKAEKLLKEVKEYGDESLEKIAEIALEEIKKAIEDPENQKEYLEHALAFARVLEGQFLLELEE
# B3: GBRAP_128_3369 (protein)
# chain: LDEARLAEIRALVEAMIESSVEETRELTAEIVERIGTLSPEEQEAAVAIILEALPQFSKEKLEAIADTIRERRDELDPYTQRLLAEVEVEALNLAEELEE
# B4: GBRAP_150_3938 (protein)
# chain: DLEELLLLAEGIETDLELALEPGFDRLKLAERALELAKEIAKESDEELKKLAEELIKILEEAIKAIKEGAPQEEIDKLIKEALKLAEKLIEEIEKKIKEE
# B5: GBRAP_14_3821 (protein)
# chain: MEEILKVIEEEYEELAEELSEIAPEKKEEIKEIVEEKKKETIEEIKETGDAEEAVEEEREELLEEIEKLTADLPEEIRNTALAEADIEMAELEEEVEELE
# B6: GBRAP_35_5528 (protein)
# chain: ATDEEIAEMLAATIDDLVLAIPDMPVDTAKAAALSIAEAAKELAEEVKDNKKALELIAESVKRLAEALKKEAEKDPAMKPAYEKAKEVLEYIEKLIKEAE
# B7: GBRAP_160_4662 (protein)
# chain: MEELEKLKKEIEELIEEALKEMEGETHEQRVAVARTMVGNIVLLLSENPLVSDEAEDEVDEIGDELVEKIEANPDLTQEELEELLKEMGEKIKKVLDEKA
# B8: GBRAP_52_5964 (protein)
# chain: MEEEMEKKLEELFELKKAGDEEGMRKKAKEIVETLNDEELELFAKVLVKKIKESNLEDAELLLEIAIVLADEIEEAGRDERIASDLLGEAAAAYYKKLQE
# Target: GABARAP, O95166
# Assay: median log2 fold change of GCK-ALFA target abundance (FLAG IP / Myc IP barcode read proportion) (log2 ratio); each designed protein is fused to an ALFA-tag nanobody in HEK293 cells to bring the named protein to FLAG-tagged glucokinase (GCK); Myc marks an untargeted standard; higher = target protein stabilised (more abundant)
# Conditions: target protein: 3xFLAG-MCP-GCK-ALFA reporter; HEK293 landing pad (RPLP)
# Method in brief: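 HEK293 landing-pad cells received a recombined binder library fused to the ALFA nanobody and were induced with 2 μg mL^−1 doxycycline, then transfected with a plasmid encoding a FLAG-tagged target and a Myc-tagged standard. Lysates were collected after 48 h for anti-FLAG and anti-Myc immunoprecipitation, and the circular RNA barcodes were reverse transcribed, amplified and sequenced. Target abundance for each binder is the median log2 ratio of FLAG to Myc barcode read proportions. Barcodes had to reach a proportion of at least 10^−7 in both replicates, each binder needed at least 3 barcodes per replicate, a pseudocount of 10^−6 was applied, and the two replicates were pooled.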
# GABARAP, O95166, sequence (O95166 whole entry, the tested form may be a part): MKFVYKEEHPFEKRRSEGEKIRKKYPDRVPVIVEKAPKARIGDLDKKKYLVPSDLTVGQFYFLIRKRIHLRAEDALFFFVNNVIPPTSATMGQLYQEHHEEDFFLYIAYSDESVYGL
row,Binder,median log2 fold change
1,B1,0.0476
2,B2,0.0612
3,B3,0.219
4,B4,0.0749
5,B5,0.381
6,B6,0.275
7,B7,0.191
8,B8,-0.0348

# From the supplement of paper PMC12632987
